Measured values from US12331094B2 (Bayer Aktiengesellschaft, priority 2018, dated 2025).

T1: insulin degrading enzyme (IDE) (Rattus norvegicus, UniProt P35559)
T1 sequence (P35559 1-1019): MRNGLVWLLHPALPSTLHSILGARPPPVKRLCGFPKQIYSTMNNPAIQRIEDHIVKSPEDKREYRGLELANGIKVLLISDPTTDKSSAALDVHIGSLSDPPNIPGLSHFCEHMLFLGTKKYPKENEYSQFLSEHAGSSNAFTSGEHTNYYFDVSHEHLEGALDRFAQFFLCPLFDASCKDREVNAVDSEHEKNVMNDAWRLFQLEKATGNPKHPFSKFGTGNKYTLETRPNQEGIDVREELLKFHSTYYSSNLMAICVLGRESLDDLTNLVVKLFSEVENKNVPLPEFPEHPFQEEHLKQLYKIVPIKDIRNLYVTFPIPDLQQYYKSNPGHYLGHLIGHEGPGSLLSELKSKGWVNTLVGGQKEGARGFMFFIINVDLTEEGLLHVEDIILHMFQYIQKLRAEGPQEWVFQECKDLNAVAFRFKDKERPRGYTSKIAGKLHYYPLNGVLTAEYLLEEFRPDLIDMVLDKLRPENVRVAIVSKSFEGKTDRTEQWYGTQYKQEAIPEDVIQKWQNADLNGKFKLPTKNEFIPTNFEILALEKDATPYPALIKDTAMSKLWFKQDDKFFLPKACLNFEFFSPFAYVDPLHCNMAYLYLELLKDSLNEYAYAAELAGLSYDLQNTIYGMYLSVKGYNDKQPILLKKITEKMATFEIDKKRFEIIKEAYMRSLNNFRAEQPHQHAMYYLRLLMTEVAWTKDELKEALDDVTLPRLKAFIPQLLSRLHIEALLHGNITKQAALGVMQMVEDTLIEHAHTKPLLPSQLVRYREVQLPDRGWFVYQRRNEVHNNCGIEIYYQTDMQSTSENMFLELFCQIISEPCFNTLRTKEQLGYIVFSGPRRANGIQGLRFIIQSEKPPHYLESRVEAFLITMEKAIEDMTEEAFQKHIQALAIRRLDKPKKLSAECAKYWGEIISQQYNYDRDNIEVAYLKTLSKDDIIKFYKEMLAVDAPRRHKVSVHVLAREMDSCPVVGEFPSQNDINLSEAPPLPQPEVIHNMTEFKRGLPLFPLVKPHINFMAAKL


Experiments:
[1] = rat, in vivo, iv, 5 mg/kg
Experimental: Pharmacokinetic parameters of TPP-10992 (SEQ ID NO 76 and SEQ ID NO 66) and TPP-5661 (SEQ ID NO 67 and SEQ ID NO 66) were determined after intravenous administration of 5 mg/kg to male Wistar rats (n=3). TPP-10992 and TPP-5661 were given as a bolus injection via the tail vein. Blood samples were collected from the jugular vein via previously implanted catheters in time intervals up to 14 days (336 hours). Generated EDTA-plasma was stored at −20° C. until further analysis. The quantification of TPP-10992 and TPP-5661 in plasma samples was performed employing an anti-human IgG ELISA (enzyme-linked immunosorbent assay) format. Pharmacokinetic parameters were calculated from plasma concentration time profiles using non-compartmental data analysis.

[2] = test system: PE-contracted aortic rings; assay: Vasorelaxation of isolated phenylephrine-contracted rat aortic rings
Experimental: All experiments were conducted in accordance with institutional guidelines and approved by the local committee on animal experiments. Male Sprague-Dawley rats (weighing 250-300 g) were anesthetized with pentobarbital sodium (40 mg/kg i.p.), killed by decapitation, and exsanguinated. The thoracic aorta was excised and placed in ice-cold Krebs buffer of the following composition: 130 mM NaCl, 14.9 mM NaHCO3, 5.5 mM dextrose, 4.7 mM KCl, 1.18 mM KH2PO4, 1.17 mM MgSO47H2O, and 1.6 mM CaCl22H2O. The vessel was pinned in a Sylgard Petri dish filled with chilled Krebs' solution, cleaned of fat and connective tissue, and cut into ring segments of approximately 3 to 4 mm in length. […] Changes in isometric force were recorded using a PowerLab data acquisition system (software Lab Chart 7.0)
After the equilibration period, aortic rings were challenged with 80 mM KCl to check tissue viability. Next, the endothelial integrity of the preparations was determined by verifying the responsiveness to acetylcholine (ACh, 1 μM) in vessels pre-contracted with Phenylephrine (PE, 1 μM). After wash-out and a period of equilibration, Phenylephrine (PE, 1 μM) was used to induce contraction, thereafter natriuretic peptides and natriuretic peptide engrafted IgGs were evaluated for vasorelaxation.

healthy beagle dogs = assay: Hemodynamics in conscious telemetered beagle dogs; format: in vivo, dog
Experimental: The effects of TPP-10992 on cardiovascular and ECG parameters after single subcutaneous administration were assessed in a primary pharmacodynamic study in conscious telemetered beagle dogs.
Telemetry devices (DSI™, USA) were surgically implanted to measure blood pressure as well as heart rate, followed by a recovery period to allow wound closure. On the day of the study, telemetry sensors were activated for continuous hemodynamic measurements. The transmitted signals were collected by telemetry receivers located in the animal facility. All collected data were processed by a data acquisition program and averaged over a predefined period of 12h. As vehicle for TPP-10992 NaCl (0.9%) was used and doses of 0.1 mg/kg, 0.3 mg/kg and 1.0 mg/kg bodyweight were applied via subcutaneous injection.

[3] = test system: spontaneously hypertensive rats; assay: Radiotelemetric blood pressure in conscious spontaneously hypertensive rats; format: in vivo, rat; conditions: 30 mg/kg dose intraperitoneally
Experimental: Blood pressure and heart rate were monitored in freely moving conscious animals by radiotelemetry (Data Sciences International). Female spontaneously hypertensive rats (SHR/N Crl BR, Charles River) with a body weight of 210-300 g were used for these studies. All animals were housed in individual cages at 22-24° C. ambient temperature and maintained on a 12-hour light/dark cycle with free access to standard laboratory rat chow and water ad libitum. Telemeter (HD-10, DSI) implantation was performed a minimum of 14 days before animals were used for blood pressure measurements. Surgery was performed under aseptic conditions. After shaving the abdominal wall, a midline abdominal incision was made, and the fluid-filled sensor catheter was inserted upstream into the exposed descending aorta between the iliac bifurcation and the renal arteries. According to the DSI guidelines the tip of the telemetric catheter was located caudal to the renal arteries and secured by tissue adhesive. The transmitter body was affixed to the inner peritoneal wall before closure of the abdomen. For postsurgical protection against infections and pain a single dosage of an antibiotic (Oxytetracyclin® 10%, 60 mg/kg s.c., 0.06 ml/100 g body weight, Beta-Pharma GmbH & Co, Germany) and analgesic were injected (Rimadyl®, 4 mg/kg s.c., Pfizer, Germany). Telemetric data acquisition was performed by DSI software was predefined to sample hemodynamic data for 10 seconds repeated every 5 minutes. Data collection was started at least 2 hours before drug administration and finished after completion of measurement cycles. Data are expressed as % of basal values±SEM of at least 4 animals per group. The basal value for each animal was calculated as the average of the values measured in two hours prior to substance application (7:00-9:00 AM). Data are then expressed as averages every half hour, starting 15 minutes post application. All animals were treated with a single intraperitoneal (ip) application of test substances dissolved in phosphate buffered saline (PBS). Drug administration took place at 9:00 AM (0 hours).

[4] = target: T2, neutral endopeptidase (NEP) (Homo sapiens, UniProt P08473); assay: Sensitivity towards proteolytic degradation by NEP (reporter cell activity after incubation); format: in vitro ADME; conditions: 4 hours incubation with 0.6 μg/ml NEP at 37° C., then reporter cell activity
T2 construct: purchased R&D Systems 1182-ZNC
T2 sequence (P08473 52-750 limits assumed): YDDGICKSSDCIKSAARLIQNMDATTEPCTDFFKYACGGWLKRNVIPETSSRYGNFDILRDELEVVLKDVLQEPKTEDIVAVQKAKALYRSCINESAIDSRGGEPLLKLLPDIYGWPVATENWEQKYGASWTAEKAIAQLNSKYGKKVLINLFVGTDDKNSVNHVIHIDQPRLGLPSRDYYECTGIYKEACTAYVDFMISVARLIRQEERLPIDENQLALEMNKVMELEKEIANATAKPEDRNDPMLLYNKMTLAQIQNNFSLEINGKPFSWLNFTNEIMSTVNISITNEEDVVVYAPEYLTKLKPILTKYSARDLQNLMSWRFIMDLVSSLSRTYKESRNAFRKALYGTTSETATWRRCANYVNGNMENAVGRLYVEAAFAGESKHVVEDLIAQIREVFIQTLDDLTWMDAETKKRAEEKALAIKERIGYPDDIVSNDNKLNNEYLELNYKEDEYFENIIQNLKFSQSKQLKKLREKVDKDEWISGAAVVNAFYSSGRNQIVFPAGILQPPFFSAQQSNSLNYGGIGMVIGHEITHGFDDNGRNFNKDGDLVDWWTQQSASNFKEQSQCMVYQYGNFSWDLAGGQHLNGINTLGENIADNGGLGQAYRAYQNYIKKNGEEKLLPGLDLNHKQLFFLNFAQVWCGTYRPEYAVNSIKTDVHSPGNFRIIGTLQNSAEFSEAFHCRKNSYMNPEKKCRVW

[5] = target: T1, insulin degrading enzyme (IDE); assay: Sensitivity towards proteolytic degradation by IDE (reporter cell activity after incubation); conditions: 4 hours incubation with 0.6 μg/ml IDE at 37° C., then reporter cell activity
[6] = Pharmacokinetics after intraperitoneal administration in mice (anti-human IgG ELISA); format: in vivo, mouse; conditions: intraperitoneal administration of 5 mg/kg
Experimental: Pharmacokinetic parameters of TPP-12897 were determined after intraperitoneal administration to female Balb/c mice (n=3). Blood samples were collected from 15 minutes up to 72 hours post application. Generated EDTA-plasma was stored at −20° C. until further analysis. The quantification of TPP-12897 in plasma samples was performed by an anti-human IgG (Immunoglobulin G) ELISA format.
Pharmacokinetic parameters were calculated from plasma concentration time profiles using non-compartmental data analysis.

| Potency (log EC50 values) ([2]; vasodilation, endothelium-intact rat aortic rings contracted by phenylephrine (1 μM)) | Molecule | Mean clearance (CL) [1] [mL/day/kg] | terminal half-life (t1/2) [1] [h] | vasodilation in PE-contracted aortic rings [2] | significance of blood pressure reduction compared to placebo (healthy beagle dogs; dogs, 1.0 mg/kg s.c.) | reduction in blood pressure (healthy beagle dogs; dogs, 0.1, 0.3 and 1.0 mg/kg single subcutaneous) | effects on heart rate (healthy beagle dogs; dogs, 0.1-1.0 mg/kg s.c.) | duration of reduction in blood pressure (healthy beagle dogs; dogs, single subcutaneous administration) [days] | duration of effect [3] | reduction in mean arterial blood pressure (MAP) [3] | time of maximum effect post application [3] [h] | proteolytic degradation by NEP [4] | proteolytic degradation by IDE [5] | Mean area under the curve (AUC) [6] [µg·h/mL] | terminal half-life (t1/2) [6] [h] |
| --- | --- | --- | --- | --- | --- | --- | --- | --- | --- | --- | --- | --- | --- | --- | --- |
| −6.7 | TPP-10992: compound 9 as IgG4; ANP engrafted in CDRH1; SEQ ID NO 76 and SEQ ID NO 66 (antibody, listed as Homo sapiens, NP engrafted HC) heavy: EVQLLESGGGLVQPGGSLRLSCAASGFTFGSGSGSGSGSGSPDGGSGGSLRRSSCFGGRMDRIGAQSGLGCNSFRYGSYGSGSGSGSGSGMSWVRQAPGKGLEWVSAISGSGGSTYYADSVKGRFTISRDNSKNTLYLQMNSLRAEDTAVYYCAKLTGAEYFQHWGQGTLVTVSSASTKGPSVFPLAPCSRSTSESTAALGCLVKDYFPEPVTVSWNSGALTSGVHTFPAVLQSSGLYSLSSVVTVPSSSLGTKTYTCNVDHKPSNTKVDKRV[here human IgG4 Fc with S228P (EU numbers) without letters] light: QSVLTQPPSVSGAPGQRVTISCTGSSSNIGAGYDVHWYQQLPGTAPKLLIYGNSNRPSGVPDRFSGSKSGTSASLAITGLQAEDEADYYCQSYDSSLSGVVFGGGTKLTVLGQPKAAPSVTLFPPSSEELQANKATLVCLISDFYPGAVTVAWKADSSPVKAGVETTTPSKQSNNKYAASSYLSLTPEQWKSHRSYSCQVTHEGSTVEKTVAPTECS | 6.48 | 184 | dose-dependent vasodilation | significant | dose-dependent and long-lasting | No effects | > 5 | greater than 6 days | approximately 20% | 48 | high resistance | high resistance |  |  |
|  | C9: CNP engrafted antibody based on TPP-12377, LC_S98D (antibody) heavy: EVQLLESGGGLVQPGGSLRLSCAASGFTFSSYAMSWVRQAPGKGLEWVSAISGSGGSTYYADSVKGRFTISRDNSKNTLYLQMNSLRAEDTAVYYCTSVHQETKKYQSSPYKGANKKGLSKGCFGLKLDRIGSMSGLGCGSGGSGSYSYTYNYEWHVDVWGQGTLVTVSS[here human IgG1 constant region without letters] light: QSVLTQPPSVSGAPGQRVTISCTGSSSNIGAGYDVHWYQQLPGTAPKLLIYGNSNRPSGVPDRFSGSKSGTSASLAITGLQAEDEADYYCQSYDSSLDGVVFGGGTKLTVLGQPKAAPSVTLFPPSSEELQANKATLVCLISDFYPGAVTVAWKADSSPVKAGVETTTPSKQSNNKYAASSYLSLTPEQWKSHRSYSCQVTHEGSTVEKTVAPTECS |  |  |  |  |  |  |  |  |  |  | high resistance | high resistance | 7705 | 194 |

Where two headings read alike, the source gives them in different places.
